Reference: PubChem BioAssay AID588453 (National Center for Advancing Translational Sciences (NCATS), 2011)
“And” between values parts separate entries of the source, which are not always exact repeats. Identical values can stand only once. About 4,000 (1%) of roughly 390,000 compounds were called active. The inconclusive results got no clear call from the source; some entries with a clear call stand among them for comparison. Calls come from the whole dose curve; as a rule, active = well fitted inhibition curve with a large enough effect; inconclusive = small, poorly fitted or top-dose-only effect; inactive = no such curve, though single readings can be large or run the other way. Where the call is inconclusive, the potency comes from a doubtful curve fit.
Note: nearly all actives have a fitted effect of over 65% in size.
Potency is the fitted concentration of half-maximal effect; tags give direction and shape of the fitted curve.

The compounds below were run against Thioredoxin reductase 1, cytoplasmic (Rattus norvegicus) (UniProt O89049) (assay: qHTS Assay for Inhibitors of Mammalian Selenoprotein Thioredoxin Reductase 1 (TrxR1): qHTS). Conditions: recombinant rTrxR1, NADPH fluorescence consumption, selenite substrate; series mostly up to 114 µM.
UniProt O89049, sequence (O89049 whole entry, looked up): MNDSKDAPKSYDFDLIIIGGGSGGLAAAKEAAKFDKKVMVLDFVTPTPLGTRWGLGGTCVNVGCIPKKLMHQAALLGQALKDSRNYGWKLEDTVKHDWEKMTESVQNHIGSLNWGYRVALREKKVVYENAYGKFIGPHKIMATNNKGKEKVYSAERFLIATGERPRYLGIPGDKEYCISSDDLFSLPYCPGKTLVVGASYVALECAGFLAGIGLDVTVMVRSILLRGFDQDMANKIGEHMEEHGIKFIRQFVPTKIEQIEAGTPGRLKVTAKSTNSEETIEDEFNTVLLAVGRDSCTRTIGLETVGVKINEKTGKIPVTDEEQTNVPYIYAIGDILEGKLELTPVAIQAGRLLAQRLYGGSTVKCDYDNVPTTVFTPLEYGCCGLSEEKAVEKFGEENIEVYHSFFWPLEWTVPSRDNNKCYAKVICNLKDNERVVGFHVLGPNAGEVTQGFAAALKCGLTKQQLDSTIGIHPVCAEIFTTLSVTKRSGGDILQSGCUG
In short: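 Rat TrxR1 (90 nM in the dispensed reagent) was pre-reduced with 400 uM NADPH for 5 min at room temperature, then incubated with compound for 15 min. After 400 uM selenite was added, NADPH fluorescence (Ex 340/Em 450 nm) was followed for 8 min.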
`Clc1ccccc1CSc1nnc(-c2ccccn2)n1Cc1ccco1` was tested, and the Potency was inconclusive: 89.1 µM [inhibitor, partial curve, poor fit]. `N#C/C(=C\c1ccc(N2CCOCC2)o1)c1nc2ccccc2[nH]1` was tested, and the Potency was inconclusive: 20 µM [inhibitor, partial curve]. In the case of `O=C(COC(=O)c1ccc([N+](=O)[O-])o1)Nc1ccc(Br)cc1F`, the Potency is reported as active: 5.01 µM. For `CCOc1ccc(NC(=O)c2nc(S(=O)(=O)Cc3ccccc3F)ncc2Cl)cc1`, the Potency was active: 8.91 µM and active: 1.78 µM. With `COc1ccc(CN=Cc2[nH]c3ccc(Br)c(Cl)c3c2O)cc1` the Potency was inconclusive: 12.6 µM [inhibitor, full curve]. In the case of `Cc1sc2ccccc2[n+]1CCCCI`, the Potency is reported as “inactive”. `CCOc1ccccc1N1CCN(C(=O)c2cc[n+]([O-])cc2)CC1` was tested, and the Potency was inconclusive: 56.2 µM [inhibitor, single point]. For `Cc1cccc(NC(=O)Cn2c(=O)n(CC3CCC(C(=O)NCCc4ccccc4)CC3)c(=O)c3ccccc32)c1` (stereo not drawn), the Potency was “inactive”. For `CCOC(=O)c1cc(-c2ccc(F)cc2)n(CCC(=O)NC2CCC(C)CC2)c1C` (stereo not drawn), the Potency was “inactive”. With `Cc1cc(=O)oc2cc(O)ccc12` the Potency was active: 50.1 µM. For `CN(C)S(=O)(=O)c1ccc(/C(O)=C2/C(=O)C(=O)N(Cc3cccnc3)C2c2ccco2)cc1` (stereo not drawn), the Potency was inconclusive: 25.1 µM [inhibitor, partial curve]. `COc1ccccc1NS(=O)(=O)c1cc(C(=O)N2CCN(C(=O)c3ccco3)CC2)ccc1F` was tested, and the Potency was inconclusive: 89.1 µM [inhibitor, single point]. With `Cc1ccc(C)c(NC(=O)c2nc(Cl)ccc2Cl)c1` the Potency was “inactive”. `Cc1cc(NC(=O)C(C)Sc2nnc(NCc3ccco3)s2)no1` (stereo not drawn) was tested, and the Potency was inconclusive: 79.4 µM [inhibitor, single point]. With `COc1ccc(NS(=O)(=O)c2ccc3c(c2)OCCO3)cc1OC` the Potency was “inactive”. In the case of `O=S(=O)(c1ccc(NC(=S)Nc2ccc(OC(F)F)cc2)cc1)N1CCOCC1`, the Potency is reported as inconclusive: 39.8 µM [inhibitor, full curve]. With `CC(C)CCNc1nc(Nc2ccccc2)c2cnn(C)c2n1` the Potency was “inactive”. With `CCN1CCN(C(=O)/C(C#N)=C/c2ccc(OC(F)F)cc2)CC1` the Potency was inconclusive: 44.7 µM [inhibitor, partial curve]. `CC1CCC(NC(=O)c2ccc3c(c2)S(=O)(=O)c2ccccc2C3=O)CC1` (stereo not drawn) was tested, and the Potency was “inactive”. With `CCOC(=O)c1sc(N(Cc2ccccc2)C(=O)CCl)nc1C` the Potency was inconclusive: 70.8 µM [inhibitor, partial curve]. `Cc1c(CC(=O)O)c(=O)oc2cc3c(cc12)CCC(C)(C)O3` was tested, and the Potency was inconclusive: 35.5 µM [inhibitor, partial curve, poor fit]. For `Cc1cccc(NC(=O)CN2C(=O)N/C(=C\c3cccn3-c3cccc(C(=O)O)c3)C2=O)c1`, the Potency was “inactive”. `N#Cc1c2n(c3c(=S)nc[nH]c13)CCCCC2` was tested, and the Potency was inconclusive: 10 µM [inhibitor, partial curve, poor fit]. `COc1ccc(N2C(=O)CC(N3CCCCC3)C2=O)cc1` (stereo not drawn) was tested, and the Potency was inconclusive: 70.8 µM [inhibitor, partial curve]. For `C#CCNC(=O)C1=C[C@@H](c2cn(C(C)=O)c3ccccc23)C[C@@H](OCCCCO)O1`, the Potency was inconclusive: 28.2 µM [inhibitor, partial curve, poor fit]. In the case of `O=C1NC(c2ccccc2)N=C2Oc3ccccc3C=C12` (stereo not drawn), the Potency is reported as “inactive”. In the case of `Oc1ccc(C(c2nnnn2C2CCCC2)N2CCc3ccccc3C2)cc1` (stereo not drawn), the Potency is reported as inconclusive: 20 µM [inhibitor, single point]. For `CCOc1ccc(C(=O)NN2C(=O)C3C4C=CC(O4)C3C2=O)cc1` (stereo not drawn), the Potency was active: 20 µM. `CSc1ccc(CCNC(=O)c2ccc(-n3c(C)cc4c3CCC(C)C4)cc2)cc1` (stereo not drawn) was tested, and the Potency was “inactive”. For `O=[N+]([O-])c1ccc(/C=N/Nc2nc(N3CCCCC3)nc(N3CCCCC3)n2)o1`, the Potency was inconclusive: 12.6 µM [inhibitor, partial curve]. `COc1ccccc1C(=O)NNC(=O)c1cccc(F)c1` was tested, and the Potency was “inactive”. `COc1ccc(NC2CCCN(C(=O)COc3ccc(Cl)cc3C)C2)cc1OC` (stereo not drawn) was tested, and the Potency was inconclusive: 79.4 µM [inhibitor, single point]. In the case of `O=C(O)c1ccc(Cl)c(NC(=S)NC(=O)c2cccc(COc3ccccc3)c2)c1`, the Potency is reported as “inactive”. In the case of `Cc1ccc(OCCn2c(C3CC(=O)N(Cc4ccc(F)cc4)C3)nc3ccccc32)c(C)c1` (stereo not drawn), the Potency is reported as “inactive”. For `Cc1ccc(-c2nc(N)s[n+]2-c2ccccc2)cc1`, the Potency was “inactive”. For `COc1ccc(C)cc1S(=O)(=O)N1CCCC(C(=O)N2CCN(c3ccccc3)CC2)C1` (stereo not drawn), the Potency was “inactive”. In the case of `Cc1ccccc1-c1nc(CS(=O)(=O)CC(=O)N2CCCCC2)c(C)o1`, the Potency is reported as inconclusive: 70.8 µM [inhibitor, partial curve]. In the case of `O=C1c2cccc3c(O)ccc(c23)C(=O)N1Cc1ccco1`, the Potency is reported as inconclusive: 70.8 µM [inhibitor, partial curve, poor fit]. In the case of `COc1ccc(C(=O)NC(=S)N2CCCCC2c2cccnc2)cc1OC` (stereo not drawn), the Potency is reported as inconclusive: 70.8 µM [inhibitor, partial curve]. With `CC(C)N1CCN(Cc2ccc(-c3ccccc3Cl)o2)CC1CCO` (stereo not drawn) the Potency was inconclusive: 56.2 µM [inhibitor, partial curve, poor fit]. `CC(C)Cc1ccc(CN2CCCC(NC(=O)CCN3CCCCC3=O)C2)cc1` (stereo not drawn) was tested, and the Potency was “inactive”. With `O=c1[nH]cnc2c1ncn2[C@H]1C[C@H](O)[C@@H](CO)O1` the Potency was “inactive”. `Cc1cccc(C(=O)NC(=S)NNC(=O)Cc2ccccc2)c1` was tested, and the Potency was “inactive”. For `CN(C)S(=O)(=O)NCC1CCCN(Cc2ccc(-c3ccccc3)cc2)C1` (stereo not drawn), the Potency was inconclusive: 39.8 µM [inhibitor, single point]. For `CC(OC(=O)c1ccc(S(=O)(=O)NCc2ccco2)cc1)C(=O)Nc1ncc(Cl)cc1Cl` (stereo not drawn), the Potency was inconclusive: 50.1 µM [inhibitor, partial curve]. For `CCNc1ccc(Br)cc(C(=O)/C=C/c2ccc(Cl)cc2Cl)c1=O`, the Potency was active: 8.91 µM. In the case of `O=C(c1cc(-c2ccc(Br)cc2)n[nH]1)N1CCN(S(=O)(=O)c2ccc(Br)s2)CC1`, the Potency is reported as “inactive”. For `Cc1ccccc1CN1CCNC(=O)C1CC(=O)N(C)CCC1CCOCC1` (stereo not drawn), the Potency was inconclusive: 39.8 µM [inhibitor, partial curve]. `Cc1cc(=O)oc(C)c1C(=O)NCCCN1CCN(c2ccc(F)cc2)CC1` was tested, and the Potency was inconclusive: 3.55 µM [inhibitor, full curve, poor fit]. For `O=c1cc(O)n(-c2ccccc2)c(=S)[nH]1`, the Potency was inconclusive: 39.8 µM [inhibitor, single point]. With `CCN(CC)S(=O)(=O)c1ccc(NC(=O)c2nn(C)c3c2CSc2ccccc2-3)cc1` the Potency was “inactive”. `O=C(NC(=S)Nc1ccccc1Br)C1CC1` was tested, and the Potency was inconclusive: 25.1 µM [inhibitor, partial curve, poor fit]. In the case of `COc1ccc(C(C)=O)cc1COC(=O)CCCN1C(=O)c2ccccc2C1=O`, the Potency is reported as inconclusive: 28.2 µM [inhibitor, single point]. With `Cc1ccc(C)c(NC(=O)CSc2nc(=O)n(CCN3CCOCC3)c3c2CCC3)c1` the Potency was “inactive”. In the case of `COc1ccc(CCN2C(=O)C=CC2=O)cc1OC`, the Potency is reported as active: 0.631 µM. In the case of `CCOc1ccccc1CNC(=O)C(CC)n1nc(C)c2c(C)n(-c3ccccc3)nc2c1=O` (stereo not drawn), the Potency is reported as “inactive”. With `O=C(CNC(=O)c1ccccc1)OCC(=O)c1ccccc1` the Potency was “inactive”. In the case of `Cc1ccc(OCc2ccc(C(=O)Nc3ccc(C(N)=O)cc3)o2)c([N+](=O)[O-])c1`, the Potency is reported as inconclusive: 39.8 µM [inhibitor, single point]. `CCOC(=O)/C(=C/c1ccc(OC(=O)c2ccccc2)cc1)C(C)=O` was tested, and the Potency was active: 14.1 µM. For `CN(CCOc1ccccc1)C(=O)c1cc(-c2ccco2)nc2ccccc12`, the Potency was inconclusive: 14.1 µM [inhibitor, full curve]. With `CS(=O)(=O)c1ncc(Cl)c(C(=O)N2CCN(c3cccc(Cl)c3)CC2)n1` the Potency was active: 0.891 µM. For `O=C(CN1C(=O)COc2ccc(S(=O)(=O)N3CCOCC3)cc21)NCc1ccc(Cl)cc1`, the Potency was “inactive”. `C[N+](C)(C)c1ccc(/C=C/c2ccnc3ccccc23)cc1` was tested, and the Potency was inconclusive: 50.1 µM [inhibitor, single point]. In the case of `COc1ccc(/C=C2\CCn3c2nc2cc(C(=O)O)ccc2c3=O)cc1O`, the Potency is reported as inconclusive: 79.4 µM [inhibitor, single point]. For `CC1Cc2ccccc2N1CC(=O)NC(=O)NCc1ccco1` (stereo not drawn), the Potency was inconclusive: 39.8 µM [inhibitor, single point]. In the case of `Cc1ccc(NC2=C([N+](=O)[O-])CS(=O)(=O)C2)cc1`, the Potency is reported as inconclusive: 7.94 µM [inhibitor, partial curve]. In the case of `COc1ccccc1/C=C/C1=NC(=C\N(C)C)/C(=O)O1`, the Potency is reported as “inactive”. With `C[N+]1(CC(O)COc2ccccc2)CCN(C(=O)c2ccc([N+](=O)[O-])cc2)CC1` (stereo not drawn) the Potency was inconclusive: 79.4 µM [inhibitor, partial curve, poor fit]. For `Nc1c(NC(=O)CC[n+]2ccccc2)cccc1[N+](=O)[O-]`, the Potency was inconclusive: 89.1 µM [inhibitor, partial curve, poor fit]. `Cc1ccc(-c2oc3ccccc3c(=O)c2OCC(=O)O)cc1` was tested, and the Potency was “inactive”. In the case of `Nc1ccc(C(=O)Nc2nc3ccccc3s2)cc1`, the Potency is reported as inconclusive: 89.1 µM [inhibitor, partial curve, poor fit]. With `CN(C)CCNC(=O)c1cccc(S(=O)(=O)Nc2ccc(F)cc2)c1` the Potency was inconclusive: 8.91 µM [inhibitor, single point]. In the case of `O=C1c2cccc3c([N+](=O)[O-])ccc(c23)C(=O)N1c1ccccn1`, the Potency is reported as inconclusive: 25.1 µM [inhibitor, single point].
